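Cells were grown in 96-well plates and exposed to each compound for 48 hours at five concentrations; endpoints were interpolated linearly between bracketing concentrations, or set to the highest concentration if not reached. GI50: concentration for 50% inhibition of growth. TGI: concentration producing complete growth inhibition.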
tested on: NCI-H322M lung; experiment: NCI tumour cell line growth inhibition, 48 h

| Compound | GI50 [µM] | TGI [µM] |
| --- | --- | --- |
| CSc1nn2c(-c3ccc4ccccc4c3)ccnc2c1C#N | 5.94 | > 100 |
| N#Cc1c(-c2ccccc2)n([O-])c2ccccc2[n+]1=O | 23.6 | 67.4 |
| Nc1[nH]c(=O)nc2c1cnn2Cc1ccccc1 | – | > 100 |
| Cn1cc(C2=C(c3cn(C)c4cc(C(=O)O)ccc34)C(=O)NC2=O)c2ccccc21 | > 25 | > 25 |
| O=NNc1ccc(S(=O)c2ccccc2)cn1 (configuration not stated) | – | > 100 |
| COc1ccc(-c2nc3ccc([N+](=O)[O-])cc3c(=O)[nH]2)cc1 | – | > 100 |
| CO[C@]12CC(=O)C3(C(C[C@H]4CC5CCC6=CC(=O)CC[C@]6(OC(C)=O)C5C[C@@]43C)C1)C1C[C@H]3[C@@H]4CCC5=CC(=O)CC[C@]5(OC(C)=O)[C@H]4CC[C@]3(C)C12 (some centres not stated) | – | > 100 |
| Nc1ccc2nc3ccc(=O)cc-3n(-c3ccccc3)c2c1 | – | > 100 |
| O=CCOCc1cc2c(cc1Br)OCO2 | – | > 100 |
| CC12OC3(O)C4C5CC(C6C5C3C61)C42 (configuration not stated) | – | > 100 |
| O=C1C2=C(CCCC2)Nc2cccc3ncn1c23 | – | > 100 |
| Cc1cc(O)c(C=NC(=S)C(N)=S)c(=O)o1 | – | > 100 |
| Cc1ccc(-c2c(C#N)c(N)[nH]c(=S)c2C#N)cc1 | – | > 100 |
| CCSc1ccc2c(c1)N(CCCN1CCN(C)CC1)c1ccccc1S2 | 3.08 | 8.18 |
| COc1cc(/C=C/c2cccnc2)cc(OC)c1OC | – | > 100 |
| CCN(CC)CCCN1C(=O)c2c(c(C)c3c(oc4ccc(O)cc43)c2C)C1=O | 1.68 | 3.09 |
| O=[N+]([O-])c1cc([N+](=O)[O-])c(N2CCCC2)cc1NN=C(c1ccc(O)cc1)c1ccc(O)cc1 | 13.8 | 29 |
| O=C(COc1ccc(OCC(=O)N2C(=O)CN(c3ccc(Cl)cc3)C2=S)cc1)N1C(=O)CN(c2ccc(Cl)cc2)C1=S | – | 61.8 |
| OCCCNCC(O)c1ccc(OCc2ccccc2)c(OCc2ccccc2)c1 (configuration not stated) | – | 27.1 |
| CCCCCCCCCCCCC/C=C/[C@H]1[C@@H](C(=O)OC)N1S(=O)c1ccc(C)cc1 (some centres not stated) | – | > 100 |
| C=C1C[C@]23CC[C@@H]4C(CO)(CO)CC(=O)C[C@]4(C)[C@@H]2CC[C@H]1C3 | – | > 100 |
| CNc1ccc(S(=O)Nc2ccc(OC)cc2)cc1 (configuration not stated) | – | > 100 |
| CCOC(=O)c1ccc(NC(=O)Nc2nccs2)cc1 | 0.0818 | 58.8 |
| O=C1C(c2ccccc2)=C(c2ccccc2)C(c2ccc(-c3ccc(C4=C(c5ccccc5)C(=O)C(c5ccccc5)=C4c4ccccc4)cc3)cc2)=C1c1ccccc1 | – | > 100 |
| CN=c1oc2ccccc2cc1C(N)=O | – | > 100 |

| Compound | GI50 [µM] | TGI [µM] |
| --- | --- | --- |
| CN(CCN(C)CCN(C)C(=O)Cc1ccc(Cl)c(Cl)c1)CCN1CCCC1 | – | 55 |
| O=C(/C=C\c1ccc(-c2ccccc2)cc1)c1cccs1 | – | > 100 |
| C=C1C(=O)O[C@H]2[C@H]1CC/C(COC(=O)NCc1[nH]nc3ccccc13)=C\CC[C@@]1(C)O[C@@H]21 | 8.61 | 21 |
| N#Cc1nc(-c2cccnc2)oc1N | – | > 100 |
| C/C=C(/C(=C/C)c1ccc(O)cc1)c1ccc(O)cc1 | 6.43 | 22.3 |
| CC1(C)CC(=O)C(C(=O)C(=O)NC2=C(Cl)C(=O)c3ccccc3C2=O)C(=O)C1 | – | > 100 |
| CN(C)c1ccc(O)c2c1CC1CC3C(N(C)C)C(=O)C(C(N)=O)=C(O)C3(O)C(=O)C1=C2O (configuration not stated) | 12.3 | 65.6 |
| O=C(c1ccco1)N(Cc1cccnc1)C(=S)N(Cc1cccnc1)C(=O)c1ccco1 | – | 39.9 |
| COc1ccc(N2C(=O)C3c4[nH]c5ccc(OC)cc5c4C4CCC(C(C)C)CC4C3C2=O)cc1 (configuration not stated) | – | > 100 |
| c1cc(N2CCN(c3ccc(C4=NCCN4)cc3)CC2)ccc1C1=NCCN1 | > 100 | > 100 |
| O=c1ccc(N=Nc2ccccc2)ccc1Cl | 63.1 | > 100 |
| Cc1cc(C)nc(NS(=O)(=O)c2ccc(NC(=O)c3cccc4c(Nc5ccc(S(=O)(=O)N=C(N)N)cc5)c5ccc(Cl)cc5nc34)cc2)n1 | – | > 100 |
| Cc1nc2nnnn2c2c1C(=O)Nc1ccccc1N2 | – | > 100 |
| N=C1N(c2ccccc2)C(=S)C(=Nc2ccccc2)N1c1ccccc1 | – | 30.9 |
| CCCCCOC(=O)C(=O)Nc1n[nH]nc1C(N)=O | – | > 100 |
| Cc1cc(C)c2c(=O)cc(-c3cccc(Cl)c3)[nH]c2n1 | – | > 100 |
| COc1c(-c2nc3nc(N4CCN(C)CC4)ccc3[nH]2)cc(OC)c2c1nc(CO)n2C | – | > 100 |
| CCC(C)NC1=C(NC(C)=O)C(=O)c2ccccc2C1=O (configuration not stated) | – | > 75 |
| CC(C)(C)c1cc2c(O)c(c1)C(c1ccccc1)c1cc(C(C)(C)C)cc(c1O)Cc1cc(C(C)(C)C)cc(c1O)C(c1ccccc1)c1cc(C(C)(C)C)cc(c1O)C2 (configuration not stated) | – | > 100 |
| CS(=O)(=O)Nc1ccc(Nc2cc[nH]c3ccc4nccc4c23)cc1 | – | 28.7 |
| Cc1noc(NS(=O)(=O)c2ccc(NC(=O)c3ccc4nc5ccccc5c(Nc5ccc(S(=O)(=O)Nc6onc(C)c6C)cc5)c4c3)cc2)c1C | – | > 100 |
| CN(CC(=O)O)c1ncc2c(n1)-c1ccccc1OC2c1ccccc1 (configuration not stated) | – | > 100 |
| Clc1ccc(C(c2ccc(Cl)cc2)c2cncnc2)cc1 | – | 31.4 |
| C=CCOC1=CC(=O)c2ccccc2C1=O | 15.4 | 29.6 |
| O=C(C(Br)C(Br)c1ccccc1)C(Br)C(Br)c1ccccc1 (configuration not stated) | 7.38 | 21.9 |

| Compound | GI50 [µM] | TGI [µM] |
| --- | --- | --- |
| O=C(O)CCc1nc2c(n1Cc1ccccc1)C(=O)c1ccccc1C2=O | – | > 100 |
| CC(C)(Oc1ccc(C(=O)c2ccc(Cl)cc2)cc1Cl)C(=O)Nc1c(Cl)cccc1Cl | – | > 100 |
| C=CCCC(=O)N1CCC(C(=O)OCC)C1=O (configuration not stated) | – | > 100 |
| COc1cc([C@@H]2c3cc4c(cc3[C@@H](NC(=O)c3cccc(N)c3)C3COC(=O)[C@@H]32)OCO4)cc(OC)c1O (some centres not stated) | – | > 100 |
| COc1ccc(/C=N/Nc2nc(N)nc(N3CCCC3)c2C#N)cc1 | 21.1 | 51.1 |
| CC1=C(C#N)C2C(=C(C)N1)C(N)=Nc1ccccc12 (configuration not stated) | – | > 100 |
| COc1cc(OC)c(C#N)c(OC)c1C | – | > 100 |
| CC(C)(C)CC(C)(C)c1ccc(OCCSC(=N)N)cc1 | 1.7 | 3.17 |
| CC1(C)C[C@H]2[C@H](O)C(CO)=C3C(=O)[C@@H](O)[C@]3(C)[C@H]2C1 | – | > 100 |
| Cn1c([N+](=O)[O-])cnc1CN1CCN(CCO)CC1 | – | > 100 |
| CN(N=O)C(=O)N(N)CCCCC(NC(=O)OCc1ccccc1)C(=O)OCc1ccccc1 (configuration not stated) | – | > 100 |
| COc1cccc(NC(=O)CC(=O)Nc2cccc(OC)c2)c1 | – | > 100 |
| Cn1cc2ccccc2c1-c1nc(F)nc(Oc2ccc3c(c2)CC[C@@H]2C3CC[C@@]3(C)C2CC[C@@H]3O)n1 (some centres not stated) | – | > 100 |
| Nc1ccccc1C(=O)CCc1c[nH]c2ccccc12 | – | > 100 |
| CCSc1nc(-c2ccc(OC)cc2)c(C#N)c(=O)n1C1OCC(OC(C)=O)C(OC(C)=O)C1OC(C)=O (configuration not stated) | – | > 100 |
| CCCCC/C=C1\CC(CO)(COC(=O)CC(C(C)C)C(C)C)OC1=O (configuration not stated) | – | 29.1 |
| O=Cc1ccc(-c2nccc3c2[nH]c2ccccc23)o1 | – | > 100 |
| Cc1nnc([S-])o1.[Au+].c1ccc([PH+](c2ccccc2)c2ccccc2)cc1 | 1.62 | 3.07 |
| Cn1c2ccccc2c(=NNc2ccc(S(N)(=O)=O)cc2)c2ccccc21 | – | > 50 |
| COc1ccc(/C=C2\CS(=O)(=O)C/C(=C\c3ccc(OC)cc3)C2=O)cc1 | 4.59 | > 77.3 |
| CN1CCN(Cc2ccc(NC(=O)c3cnc(F)c(C#Cc4cnc(N)c5ncccc45)c3)cc2C(F)(F)F)CC1 | 0.397 | 11.6 |
| CCCCC/C=C/C(=O)CCc1ccc(O)c(OC)c1 | 13.6 | 28 |
| CNCCCNc1c2cc(OC)ccc2nc2cccc([N+](=O)[O-])c12 | 0.153 | 2.56 |
| COc1ccc2c(c1)CC[C@@H]1[C@@H]2CC[C@]2(C)C(c3ccsc3)=C(/C=C/C(=O)c3ccccc3)C[C@@H]12 | > 100 | > 100 |
| Nc1nc2cc(-c3ccc4ncc(C(=O)N5CCOCC5)n4c3)ccc2o1 | 3.84 | > 100 |

| Compound | GI50 [µM] | TGI [µM] |
| --- | --- | --- |
| CCN(CC)c1ccc2cc(C(=O)Nc3ccccc3OC)c(=N)oc2c1 | – | > 100 |
| CCOC(=O)c1c2c(n(Cc3ccc(Cl)cc3Cl)c1C)-c1nc(Cc3ccccc3)[nH]c1C(=O)C2=O | 2.03 | 5.21 |
| Cc1nc(C(N)=S)sc1C(=O)CC(=O)C(=O)Nc1c(C(C)C)cccc1C(C)C | – | 89.4 |
| Fc1cc(-c2cc(-c3ccccc3)n[nH]2)c(Cl)cc1Cl | – | > 100 |
| Cc1ccc(Nc2nc3c(s2)C(=O)c2ccccc2C3=O)cc1 | – | 3.24 |
| CCOC(=O)c1oc2c(OC)cc(Cl)c3c2c1CCC3 | – | > 100 |
| CNc1cc(N)ccc1C(=O)N1CCC[C@H]1CO | – | > 100 |
| N#Cc1ccsc1Nc1ccccc1[N+](=O)[O-] | – | > 100 |
| COC(=O)C(Cc1c[nH]c2ccccc12)NC(=O)C(Cc1c[nH]c2ccccc12)NC(=O)OCc1ccccc1 (configuration not stated) | – | 36.4 |
| COC(=O)C(C)(Cc1ccc2c(c1)nnn2C(C)=O)NC(C)=O (configuration not stated) | – | > 100 |
| OCC(CO)C1c2cccc3ccc4cccc1c4c23 | – | > 100 |
| C[Si]1(C)C(c2ccccc2)=CC2C(c3ccccc3)(c3ccccc3)OC21c1ccccc1 (configuration not stated) | – | > 100 |
| C=CC(O)C#Cc1cnc(OC)nc1OC (configuration not stated) | – | > 100 |
| CC(=O)/C=C/CCC(=O)/C=C/C(=O)OC(CCC(=O)/C=C/C(=O)O)CC(C)=O (configuration not stated) | – | > 100 |
| CN(C(=O)c1cccs1)C(=S)N1CCN(c2ccccn2)CC1 | – | > 100 |
| COc1ccc2c(c1)O[C@@H]1[C@@H](OC3OC(CO)C(O)C(O)C3O)Oc3cc(OC)c(OC)cc3[C@]1(O)C2=O (some centres not stated) | – | > 100 |
| Cc1cc([N+](=O)[O-])c(C)c2c1[nH]c1ccc(O)cc12 | – | > 100 |
| COC(=O)[C@@H]1CCCN1C(=O)[C@@H]1CCCN1C(=O)[C@H](Cc1ccccc1)NC(=S)Nc1cc(C(F)(F)F)cc(C(F)(F)F)c1 | 9.46 | > 100 |
| [N-]=[N+]=NC1=CC(=O)c2cccc3cccc1c23 | – | > 100 |
| CN1C(c2ccccc2)CC(=NOCc2ccccc2)CC1c1ccccc1 (configuration not stated) | – | 61.8 |
| CC1(C)CC2=C(SC3C=CC=CC3N2)C(=O)C1C(=O)C(N)=O (configuration not stated) | – | > 100 |
| CC(C)(Oc1ccc(Cl)cc1)C(=O)NC1C2CC3CC1CC(NS(C)(=O)=O)(C3)C2 (configuration not stated) | > 100 | > 100 |
| Cc1ccc2nc3n(c2c1)C(c1c(F)cccc1F)SC3 (configuration not stated) | – | > 100 |
| Cc1nc2c(=O)n(C)c(=O)n(C)c2o1 | – | > 100 |
| CCCn1c2c(c3ccccc3c1=O)C(=O)c1cc3c(cc1-2)OCO3 | 50.9 | > 100 |
